Positions count from the first letter of the chain named.
Experiments:
[1] = tested on: hTMEFF1-ECD recombinant deletion mutants; assay: Binding domain determination with hTMEFF1-ECD deletion mutants (Octet); parameters: species or system human; key: FS1—follistatin domain 1; FS2—follistatin domain 2; settings: full length TMEFF1 ECD vs ΔFS1, ΔFS2, ΔFS1&FS2
Excerpt: TMEFF1 recombinant proteins expressing 3 different deletion mutants, AFS1 (AFollistatin Domain 1), AFS2 (AFollistatin Domain 2) or AFS1&FS2 were used to identify binding domains among different antibodes using an Octet Red instrument with Anti-Penta-His (HIS 1K) biosensors. Expression of the 3 deletion mutants was confirmed by WB analysis. 100 ngs of purified TMEFF1 ECD was run along with unpurified supernatant of transfected CHO cells with the different deletion mutants. HIS 1K biosensors were loaded by submerging the biosensors into wells containing 10 ug/ml of full length TMEFF1 or one of 3 different deletion mutants (AFS1, AFS2 or AFS1&FS2) for 60 seconds. Following the loading step, the biosensors were then dipped for 30 seconds in PBS before immersion for 30 seconds in 200 ul of unpurified recombinant antibodies for 30 seconds. The biosensors were then dipped briefly (30 seconds) in PBS to observe any dissociation. Samples were determined to show binding or no binding by comparing to a control well that contained no recombinant antibody. Differential binding to the deletion mutants allowed for determination of binding sites on TMEFF1 recombinant protein. For cases where the antibody bound all 3 recombinant proteins, the binding is outside of the deleted domains. For the case where binding is observed only on full length TMEFF1 and AFS2, the antibody is binding in the ΔFS1 domain.
26 of the identified antibodies were checked for epitope domain binding by Octet™ using the hTMEFF1-ECD recombinant deletion mutants (see Table 7, below).

[2] = tested on: 293-hTMEFF1 cells; assay: Flow based antibody internalization assay; format: cell-based, human; settings: 293-hTMEFF1 fixed with PFA, antibody 1 ug/ml, 30-120 min
Method: For Flow based internalization assay, 293-hTMEFF1 cells were collected and either fixed with 4% paraformaldehyde (PFA) for 20 minutes at 37° C. or kept live on ice. Cells were then incubated on ice for 40 minutes with anti-TMEFF1 antibody at 1 ug/ml, washed 2× with ice cold PBS, resuspended in complete warm media and incubated at 37° C. for 30, 60 or 120 minutes. Live cells were then fixed at those time points, washed 2× with PBS and labeled with fluorescent conjugated secondary antibody for 30 minutes on ice.
Antibody mediated TMEFF1 internalization was evaluated by Flow cytometry with five human anti-TMEFF1 antibodies in 293-hTMEFF1 cells. Fixed cells were treated with the antibody as a control of antibody loss due to detachment rather than internalization which would result in reduce signal. Thus a constant signal over time in fixed cells and a loss of signal in live cells would indicate antibody internalization. […] In live cells, it was observed that most antibodies show about a 50% internalization by 30 min of treatment (FIG. 1B).

[3] = biological target: T1, recombinant TMEFF1 (Homo sapiens, UniProt Q8IYR6); assay: Binding competition binning (Octet); settings: seven antibodies, 3 bins
T1 construct: generated to secrete the ECD from CHO cells to assist with biophysical evaluations; His tag (C); made in house; host or cells: CHO (ExpiCHO)
T1 sequence (Q8IYR6 40-330 limits assumed): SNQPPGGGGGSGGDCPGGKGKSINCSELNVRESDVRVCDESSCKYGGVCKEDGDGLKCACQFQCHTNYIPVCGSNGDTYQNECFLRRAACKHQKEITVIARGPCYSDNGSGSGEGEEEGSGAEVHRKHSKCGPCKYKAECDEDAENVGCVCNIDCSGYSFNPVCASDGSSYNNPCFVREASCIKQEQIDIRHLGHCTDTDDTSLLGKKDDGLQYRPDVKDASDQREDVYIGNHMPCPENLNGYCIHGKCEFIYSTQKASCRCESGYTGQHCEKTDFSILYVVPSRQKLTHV
Method: Binding competition among different antibodies was determined using a real-time, interferometry assay on an Octet Red™ instrument with Protein A-conjugated biosensors. To assess whether two antibodies competed for binding to a recombinant TMEFF1 protein, the assay was performed as follows. Protein A biosensors were first submerged into wells containing 10 ug/mL of individual monoclonal antibodies for 5 minutes. Following the capture step, the biosensors were dipped briefly (15 seconds) into buffer and then any unoccupied sites on the biosensor were saturated by submerging them for 5 minutes into wells containing 100 ug/mL of an irrelevant monoclonal antibody. The Octet biosensors were then dipped briefly (15 seconds) in buffer before immersion for 1 minute into wells containing recombinant TMEFF1. The biosensors were dipped briefly (15 seconds) in buffer before immersion for 1 minute into wells containing a second recombinant antibody.
For the control case where the second antibody was the same as the first, there was no increase in signal, because there was no additional binding to the recombinant target.
For the control case where buffer was used instead of the first antibody, no recombinant target bound the non-quenching antibody on the biosensor and no second antibody bound the biosensor. […]

[4] = tested on: H526 xenografts; assay: In vivo efficacy in H526 xenograft model; parameters: species or system Nu/Nu mice
Method: Human monoclonal antibodies were conjugated to the valine-alanine-pyrrolobenzodiazepine, MA-PEG8-VA-PAB-SG3199 (PBD) as previously described (Stefano J. E., Busch M., Hou L., Park A., Gianolio D. A. (2013) Micro- and Mid-Scale Maleimide-Based Conjugation of Cytotoxic Drugs to Antibody Hinge Region Thiols for Tumor Targeting. In: Ducry L. (eds) Antibody-Drug Conjugates. Methods in Molecular Biology (Methods and Protocols), vol 1045. Humana Press, Totowa, N.J.). […] After this incubation, the entire mixture was run over a gel filtration column to remove free drug. A fraction of the eluate was then used for concentration and DAR determination using A280 and HIC respectively. The drug to antibody ratio for 30C10-PBD was 1.7. The drug to antibody ratio for control human IgG1-PBD (Ctrl) was 3.0.
For efficacy studies with antibody drug conjugates, 6-8 weeks old female Nu/Nu mice (Taconic) were inoculated subcutaneously in the dorsal right flank with 2.5 million H526 cells in 1× PBS with equal volume of Matrigel (Corning, Cat #356234). When tumor volumes reached 200-400 mm3 (day 0), animals were randomized into 3 groups of 6-7 each and administered 3× IV injections every 4 days (IV/Q4Dx3) of anti-TMEFF1-PBD or hIgG-PBD control antibody at 1 mg/kg or PBS (vehicle) control. Tumor volumes were determined using digital calipers (Fred V. Fowler Company, Inc.) using the formula (length×width^2)×0.52. Measurement was performed twice weekly for the first 30 days after initial dosing, then once a week until the end of the study.
Each animal was euthanized when its tumor reached the endpoint size of 1500 mm^3 or on the final day of the study (Day 98), whichever came first. The time to endpoint (TTE) for each mouse was defined as the time elapsed for an animal to be removed from the study. […] Animals classified as NTR (nontreatment-related) deaths due to unknown causes were excluded from TTE calculations (and all further analyses).
Treatment outcome was determined from percent tumor growth inhibition (TGI) and tumor growth delay (TGD). TGI is defined as the percent decrease in average tumor volume of treated versus control group and calculated from the following equation:
[formula] Where TVtx Day X=Average tumor volume of treated group on Day X; TVtx Day 0=Average tumor volume of treated group on Day 0; TVveh Day X=Average tumor volume of control group on Day X; TVveh Day 0=Average tumor volume of control group on Day 0.
TGI of the treatment group was assessed when 50% of animals in control group has reached their TTE, which is on Day 15 on this study.
TGD or T-C is defined by difference between median TTE of treated (T) versus control (C) groups and calculated from the following equation: TGD=Median of TTEtx−Median of TTEveh Where Median of TTEtx=median of TTE of treated group; Median of TTEveh=median of TTE of vehicle group.
Mice were monitored for regression responses. An animal with a complete tumor regression at the termination of the study was classified as a tumor free survivor (TFS).
Animals were weighed weekly for the study. The mice were observed frequently for overt signs of any adverse, treatment-related side effects, and clinical signs of toxicity were recorded when observed. Acceptable toxicity is defined as a group mean body-weight loss of less than 15% during the study and not more than one treatment-related (TR) death among ten treated animals. Any dosing regimen that results in greater toxicity is considered above the maximum tolerated dose (MTD). […]

B1: 30C10: human anti-TMEFF1 IgG1 antibody; VH SEQ ID NO: 38, VL SEQ ID NO: 41 (antibody, V domains shown)
VH: QVQLVESGGGVVQPGRSLRLSCAASGFTFSSYGMHWVRQAPGKGLEWVAVIWYDGSDKYYADSVKGRFTISRDNSKKTLYLQMNSLRAEDTAVYFCARETIFRGLTITFFDHWGQGTLVTVSS
VL: EIVMTQSPATLSVSPGERATLSCRASQSVSSNLAWYQQKPGQAPRLLIYGASTRATGIPARFSGSGSGTEFTLTISSLQSEDFAVYYCQQYNNWPPTFGGGTKLEIK
- Binding region (epitope domain binding) [1]: FS1
- Cell surface binding in fixed cells over the duration of the assay [2]: consistent cell surface binding in fix cells
- Competition binning (epitope bin) [3]: compete with each other and bind FS1

B2: 30C10-PBD: antibody 30C10 conjugated to MA-PEG8-VA-PAB-SG3199 (Tesirine PBD), drug to antibody ratio 1.7 (conjugate)
VH: B1 VH
VL: B1 VL
- efficacy and survival in H526 xenograft ([4]; 1 mg/kg IV Q4Dx3, 98 day study): tumor regression, excellent efficacy and survival advantage over the control groups
- mice body weight loss ([4]; 1 mg/kg IV Q4Dx3, 98 day study): Little or no mice body weight loss
- tumor free survivor (TFS) at the end of the study ([4]; Day 98, 1 mg/kg IV Q4Dx3): 5 out of 6
- TGI ([4]; compared to hIgG-PBD control group at Day 15, 1 mg/kg IV Q4Dx3): 123.8%
- TGD ([4]; median TTE treated minus control, 1 mg/kg IV Q4Dx3): 83 days

B3: 45D8: human anti-TMEFF1 IgG1 antibody; VH SEQ ID NO: 129, VL SEQ ID NO: 133 (antibody, V domains shown)
VH: EVQLLESGGGLVQPGGSLRLSCAASGFTFSSYAMSWVRQAPGKGLEWVSTISGSGGSTYYADSVKGRFTISRDNSKNTLYLQMNSLRAEDTAIYYCAKFGVRGVIITNWFDPWGQGTLVTVSS
VL: B1 VL with P96L
- Binding region (epitope domain binding) [1]: FS1

B4: M10: human anti-TMEFF1 IgG1 antibody; VH SEQ ID NO: 124, VL SEQ ID NO: 128 (antibody, V domains shown)
VH: QVQLVESGGGGVQPGRSLRLSCAASGFTFSRYGMHWVRQAPGKGLEWVAVIWYDGSDEYYADSVKGRFTISRDNSKNTLYLQMNSLRAEDTAVYYCARETMGRGIIISYFDYWGQGTPVTVSS
VL: B1 VL with G100Q
- Binding region (epitope domain binding) [1]: FS1
